Experimental data reported in a collection of fitness landscapes (doi:10.1126/science.1257360).
The list shows a part of the results.

B1: PhoQ; a variant is named by its letters at X, in order, P23837 (parent)
chain: MKKLLRLFFPLSLRVRFLLATAAVVLVLSLAYGMVALIGYSVSFDKTTFRLLRGESNLFYTLAKWENNKLHVELPENIDKQSPTMTLIYDENGQLLWAQRDVPWLMKMIQPDWLKSNGFHEIEADVNDTSLLLSGDHSIQQQLQEVREDDDDAEMTHSVAVNVYPATSRMPKLTIVVVDTIPVELKSSYMVWSWFIYVLSANLLLVIPLLWVAAWWSLRPIEALAKEVRELEEHNRELLNPATTRELTSLVRNLNRLLKSERERYDKYRTTLTDLTHSLKTPLXXLQXXLRSLRSEKMSVSDAEPVMLEQISRISQQIGYYLHRASMRGGTLLSRELHPVAPLLDNLTSALNKVYQRKGVNISLDISPEISFVGEQNDFVEVMGNVLDNACKYCLEFVEISARQTDEHLYIVVEDDGPGIPLSKREVIFDRGQRVDTLRPGQGVGLAVAREITEQYEGKIVAGESMLGGARMEVIFGRQHSAPKDE

Variants of: B1
Experiment: enrichment ratio after two sorts for PhoP signalling (ratio (wild type AVST 3.29)); higher = more functional
Details: with PhoP (E. coli)

Row | Variant | enrichment ratio
1 | WTSY | ≤ 0.25
2 | RWGR | ≤ 0.25
3 | ECYR | ≤ 0.25
4 | RWMQ | ≤ 0.25
5 | KELG | ≤ 0.25
6 | QQSG | ≤ 0.25
7 | VKES | ≤ 0.25
8 | MKLK | ≤ 0.25
9 | RCMM | ≤ 0.25
10 | VDRW | ≤ 0.25
11 | EECS | ≤ 0.25
12 | RCIP | ≤ 0.25
13 | SQDS | ≤ 0.25
14 | TDTW | ≤ 0.25
15 | GPVW | ≤ 0.25
16 | GWLV | ≤ 0.25
17 | YHEL | ≤ 0.25
18 | SGPG | ≤ 0.25
19 | RMGR | 0.804
20 | INQF | ≤ 0.25
21 | NAES | ≤ 0.25
22 | VKDV | ≤ 0.25
23 | GLGR | ≤ 0.25
24 | IAFY | ≤ 0.25

Row | Variant | enrichment ratio
25 | VEVK | ≤ 0.25
26 | VNTF | ≤ 0.25
27 | YDMG | ≤ 0.25
28 | FWGL | ≤ 0.25
29 | LRLF | ≤ 0.25
30 | NEMI | 29
31 | PNTD | ≤ 0.25
32 | MNCL | 1.41
33 | MDCQ | ≤ 0.25
34 | KRSE | ≤ 0.25
35 | HKSE | ≤ 0.25
36 | SMDD | ≤ 0.25
37 | YTQW | ≤ 0.25
38 | NFLT | ≤ 0.25
39 | YDIH | ≤ 0.25
40 | TVCT | 6.2
41 | VLIP | ≤ 0.25
42 | DPVV | ≤ 0.25
43 | HNHG | ≤ 0.25
44 | FWRS | 2.47
45 | KPMR | ≤ 0.25
46 | NKNR | ≤ 0.25
47 | VRWM | ≤ 0.25
48 | KQSK | ≤ 0.25

Row | Variant | enrichment ratio
49 | SRYL | ≤ 0.25
50 | VPKF | ≤ 0.25
51 | RIHG | ≤ 0.25
52 | QNRH | ≤ 0.25
53 | GTCD | ≤ 0.25
54 | QYLH | ≤ 0.25
55 | TMQN | ≤ 0.25
56 | DQWF | ≤ 0.25
57 | SKQL | ≤ 0.25
58 | GVGK | ≤ 0.25
59 | QMTV | ≤ 0.25
60 | HYPM | ≤ 0.25
61 | AGFR | ≤ 0.25
62 | TGLH | 8.99
63 | NICV | ≤ 0.25
64 | AICG | 8.42
65 | YRIF | ≤ 0.25
66 | AWNY | ≤ 0.25
67 | MHQY | ≤ 0.25
68 | KNAY | ≤ 0.25
69 | KANS | ≤ 0.25
70 | LAYS | ≤ 0.25
71 | VVPQ | ≤ 0.25
72 | RAMN | ≤ 0.25

Row | Variant | enrichment ratio
73 | HKLH | ≤ 0.25
74 | HTSP | ≤ 0.25
75 | QCNW | ≤ 0.25
76 | YWEH | ≤ 0.25
77 | DYCD | ≤ 0.25
78 | VISP | ≤ 0.25
79 | GFNP | ≤ 0.25
80 | EHID | ≤ 0.25
81 | YASG | ≤ 0.25
82 | SWFY | ≤ 0.25
83 | ETRA | ≤ 0.25
84 | GFCW | ≤ 0.25
85 | WRTS | ≤ 0.25
86 | TVFG | ≤ 0.25
87 | ATNN | ≤ 0.25
88 | KYNF | ≤ 0.25
89 | SSQY | 0.712
90 | TVSK | 9.4
91 | WGWV | ≤ 0.25
92 | HSDC | ≤ 0.25
93 | LGDM | ≤ 0.25
94 | APYP | ≤ 0.25
95 | NKQS | ≤ 0.25
96 | DRYP | ≤ 0.25

Row | Variant | enrichment ratio
97 | IKQL | ≤ 0.25
98 | ISEN | ≤ 0.25
99 | FRIL | ≤ 0.25
100 | AALT | 11.9
101 | VHGA | ≤ 0.25
102 | LKND | ≤ 0.25
103 | RDRM | ≤ 0.25
104 | PVKW | ≤ 0.25
105 | YRLD | ≤ 0.25
106 | VICR | ≤ 0.25
107 | SHGH | 0.363
108 | YMFT | ≤ 0.25
109 | WDLG | ≤ 0.25
110 | GQNQ | ≤ 0.25
111 | VPRR | ≤ 0.25
112 | GWSI | ≤ 0.25
113 | YVKG | ≤ 0.25
114 | PNNP | ≤ 0.25
115 | TEVY | 1.43
116 | ANEV | ≤ 0.25
117 | LCTR | ≤ 0.25
118 | MVKG | ≤ 0.25
119 | YYFW | ≤ 0.25
120 | MLQP | ≤ 0.25

Row | Variant | enrichment ratio
121 | DSGW | ≤ 0.25
122 | AAFT | ≤ 0.25
123 | QQMM | ≤ 0.25
124 | HKTY | ≤ 0.25
125 | TKQA | ≤ 0.25
126 | AVNS | ≤ 0.25
127 | NHEF | ≤ 0.25
128 | IRCQ | ≤ 0.25
129 | HLNS | ≤ 0.25
130 | DRKA | ≤ 0.25
131 | KLYM | ≤ 0.25
132 | WVLP | ≤ 0.25
133 | QTRY | ≤ 0.25
134 | PMIV | ≤ 0.25
135 | EVDP | ≤ 0.25
136 | NYWR | ≤ 0.25
137 | HADL | ≤ 0.25
138 | YARY | ≤ 0.25
139 | DAFS | ≤ 0.25
140 | DRGQ | ≤ 0.25
141 | KVSQ | ≤ 0.25
142 | KYSW | ≤ 0.25
143 | EECC | ≤ 0.25
144 | NCHY | ≤ 0.25

Row | Variant | enrichment ratio
145 | RFGL | ≤ 0.25
146 | FALS | 8.07
147 | LGGT | ≤ 0.25
148 | YELI | 8.44
149 | IYTG | ≤ 0.25
150 | ITYQ | ≤ 0.25
151 | GTYL | ≤ 0.25
152 | NRGK | ≤ 0.25
153 | PSRH | ≤ 0.25
154 | WYSV | ≤ 0.25
155 | FKTP | ≤ 0.25
156 | HAFS | ≤ 0.25
157 | RGLF | ≤ 0.25
158 | FKMR | ≤ 0.25
159 | FCRY | ≤ 0.25
160 | IGRW | ≤ 0.25
161 | PIMI | ≤ 0.25
162 | VECG | 3.25
163 | RMTY | ≤ 0.25
164 | TMCL | 7.52
165 | TVDP | ≤ 0.25
166 | MSCL | 6.54
167 | RPSG | ≤ 0.25
168 | YTWK | ≤ 0.25

Row | Variant | enrichment ratio
169 | TRLC | 8.6
170 | SRYE | ≤ 0.25
171 | GSWK | ≤ 0.25
172 | RFHL | ≤ 0.25
173 | WKNI | ≤ 0.25
174 | NMEA | ≤ 0.25
175 | VGRG | ≤ 0.25
176 | DTVR | ≤ 0.25
177 | QQRY | ≤ 0.25
178 | RAIC | ≤ 0.25
179 | QGLN | ≤ 0.25
180 | NTRD | ≤ 0.25
181 | DDTI | ≤ 0.25
182 | WHHG | ≤ 0.25
183 | LRLT | ≤ 0.25
184 | SRWP | ≤ 0.25
185 | NMWE | ≤ 0.25
186 | RVCT | ≤ 0.25
187 | NPSH | ≤ 0.25
188 | NMKL | ≤ 0.25
189 | MKHH | ≤ 0.25
190 | TLIN | ≤ 0.25
191 | FKEH | ≤ 0.25
192 | SRII | 0.811

Row | Variant | enrichment ratio
193 | AGTM | 16.2
194 | TLLQ | 0.937
195 | EIRC | ≤ 0.25
196 | HIPG | ≤ 0.25
197 | IYHY | ≤ 0.25
198 | IMMN | ≤ 0.25
199 | FSLW | ≤ 0.25
200 | NPNG | ≤ 0.25
201 | QGCN | ≤ 0.25
202 | DEAY | ≤ 0.25
203 | KVRV | ≤ 0.25
204 | DMVF | ≤ 0.25
205 | SWAR | ≤ 0.25
206 | LLIC | ≤ 0.25
207 | GRIP | ≤ 0.25
208 | PLGF | ≤ 0.25
209 | DDMK | ≤ 0.25
210 | WHHD | ≤ 0.25
211 | DGLQ | ≤ 0.25
212 | STPC | ≤ 0.25
213 | TIVT | ≤ 0.25
214 | NFHM | ≤ 0.25
215 | IQNM | ≤ 0.25
216 | TGGT | 0.253

Row | Variant | enrichment ratio
217 | GMNM | ≤ 0.25
218 | RPWL | ≤ 0.25
219 | ENMG | ≤ 0.25
220 | TMAT | 11.2
221 | RLHT | ≤ 0.25
222 | FHVY | ≤ 0.25
223 | QCYM | ≤ 0.25
224 | IGWI | ≤ 0.25
225 | EDGA | ≤ 0.25
226 | WYTV | ≤ 0.25
227 | NIWR | ≤ 0.25
228 | MQVE | ≤ 0.25
229 | ACTA | 1.02
230 | NKTP | ≤ 0.25
231 | TAAK | ≤ 0.25
232 | FSDV | ≤ 0.25
233 | NALS | ≤ 0.25
234 | WMTI | ≤ 0.25
235 | APSV | ≤ 0.25
236 | IICV | ≤ 0.25
237 | KHSY | ≤ 0.25
238 | ITMF | 0.899
239 | AIYH | ≤ 0.25
240 | GNSL | 10.3

Row | Variant | enrichment ratio
241 | KRTM | ≤ 0.25
242 | SMDM | ≤ 0.25
243 | RTKP | ≤ 0.25
244 | IKTQ | ≤ 0.25
245 | SEHM | 23.7
246 | LWFK | ≤ 0.25
247 | AMTV | 9.95
248 | IVAH | ≤ 0.25
249 | DEDL | ≤ 0.25
250 | FQGM | ≤ 0.25
251 | DMDG | ≤ 0.25
252 | GIMQ | 11.4
253 | GMPR | ≤ 0.25
254 | HWFG | ≤ 0.25
255 | AQWT | ≤ 0.25
256 | INIY | ≤ 0.25
257 | RMQC | ≤ 0.25
258 | DKGG | ≤ 0.25
259 | TYNP | ≤ 0.25
260 | FSQT | 1.24
261 | IFGE | ≤ 0.25
262 | IAQM | ≤ 0.25
263 | KGMK | ≤ 0.25
264 | AEIG | 21.9

Row | Variant | enrichment ratio
265 | GFRS | 0.335
266 | RFRF | ≤ 0.25
267 | THPG | ≤ 0.25
268 | GQHY | ≤ 0.25
269 | GSKG | ≤ 0.25
270 | RVHL | ≤ 0.25
271 | TAVR | ≤ 0.25
272 | MDWG | ≤ 0.25
273 | MSDI | ≤ 0.25
274 | LCWA | ≤ 0.25
275 | IWRP | ≤ 0.25
276 | EESV | ≤ 0.25
277 | GDAI | 9.76
278 | ILPQ | ≤ 0.25
279 | FIIP | ≤ 0.25
280 | WITN | ≤ 0.25
281 | NEAF | ≤ 0.25
282 | SQQS | ≤ 0.25
283 | PSIW | ≤ 0.25
284 | GQHG | ≤ 0.25
285 | FEFY | ≤ 0.25
286 | RMIQ | ≤ 0.25
287 | DLEW | ≤ 0.25
288 | KRSW | ≤ 0.25

Row | Variant | enrichment ratio
289 | KLFR | ≤ 0.25
290 | SKTY | ≤ 0.25
291 | KKDP | ≤ 0.25
292 | FPCK | ≤ 0.25
293 | CITH | ≤ 0.25
294 | ESYW | ≤ 0.25
295 | PCSN | ≤ 0.25
296 | WSPS | ≤ 0.25
297 | VIPE | ≤ 0.25
298 | DMAF | ≤ 0.25
299 | VFIW | ≤ 0.25
300 | PVCV | ≤ 0.25
301 | VHTN | ≤ 0.25
302 | NQWI | ≤ 0.25
303 | RQIW | ≤ 0.25
304 | FQPH | ≤ 0.25
305 | TTIS | 0.969
306 | VFAI | 0.456
